According to the supplement of paper PMC7580552:
Structures can show the parent of a compound that is named as a salt. This is one part of the list. Most values come without repeats; read them as rough.

Test system: Escherichia coli W3110
Assay: planktonic growth (OD600) relative to untreated control; higher = more growth
Conditions: 10 µM; 20-24 h; 30 °C; TB
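Note: stationary (unshaken) cultures in 96-well plates, started at OD600 0.05 from mid-exponential cells, with compounds supplied from DMSO stocks.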

Structure (SMILES) | planktonic growth [%]
CC[C@]12CCCN3CCc4c(n(c5ccccc45)[C@@](O)(C(=O)OC)C1)[C@@H]32 [Vincamine] | 92
CCC(C)(C)c1ccc(CC(C)CN2C[C@@H](C)O[C@@H](C)C2)cc1 (stereo not given in full) [Amorolfine hydrochloride] | 116
CCOC(=O)c1ccc(C#Cc2ccc3c(c2)C(C)(C)CCS3)nc1 [Tazarotene] | 102
CC(CCc1ccc(O)cc1)NCCc1ccc(O)c(O)c1 (stereo not given) [Dobutamine hydrochloride] | 102
CNCC[C@@H](Oc1cccc2ccccc12)c1cccs1 [(R)-Duloxetine hydrochloride] | 97
Nc1ccc(S(N)(=O)=O)cc1 [Sulfanilamide] | 100
C#CC1(O)CC[C@H]2[C@@H]3CCC4=CC(=O)CC[C@@H]4[C@H]3CC[C@@]21CC (stereo partly drawn) [Norgestrel-(-)] | 93
Clc1cc(Cl)c(OCC#CI)cc1Cl [Haloprogin] | 88
Nc1nc(=O)[nH]cc1F [Flucytosine] | 89
Nc1nnc(-c2cccc(Cl)c2Cl)c(N)n1 [Lamotrigine] | 78
CC[C@@]1(O)C(=O)OCc2c1cc1n(c2=O)Cc2cc3c(CN(C)C)c(O)ccc3nc2-1 [Topotecan] | 99
CC(=O)O[C@]1(C(C)=O)CC[C@H]2[C@@H]3C=C(C)C4=CC(=O)CC[C@]4(C)[C@H]3CC[C@@]21C [Megestrol acetate] | 100
Cc1cccc(C)c1NC(=O)CN1CCN(CCCC(c2ccc(F)cc2)c2ccc(F)cc2)CC1 [Lidoflazine] | 103
COc1ccc2c(c1)c(CC(=O)OCC(=O)O)c(C)n2C(=O)c1ccc(Cl)cc1 [Acemetacin] | 87
Cc1nccn1CC1CCc2c(c3ccccc3n2C)C1=O (stereo not given) [Ondansetron Hydrochloride] | 93
CC(=O)NC[C@H]1CN(c2ccc(N3CCOCC3)c(F)c2)C(=O)O1 [Linezolid] | 89
CC(C)(C)NCC(O)COc1cccc2c1CC(O)C(O)C2 (stereo not given) [Nadolol] | 94
Cc1cccn2c(=O)c(-c3nnn[nH]3)cnc12 [Pemirolast potassium] | 92
CC[C@H](C)C(=O)O[C@H]1C[C@H](O)C=C2C=C[C@H](C)[C@H](CC[C@@H](O)C[C@@H](O)CC(=O)O)[C@H]21 [Pravastatin] | 80
CCOCCn1c(N2CCCN(C)CC2)nc2ccccc21 [Emedastine] | 102
O=C(O)Cc1cc(I)c(Oc2ccc(O)c(I)c2)c(I)c1 [Tiratricol, 3,3',5-triiodothyroacetic acid] | 110
COCCCOc1ccnc(C[S+]([O-])c2nc3ccccc3[nH]2)c1C (stereo not given) [Rabeprazole Sodium salt] | 98
O=C(CCCCC(=O)Nc1c(I)cc(I)c(C(=O)O)c1I)Nc1c(I)cc(I)c(C(=O)O)c1I [Iodipamide] | 98
CNCC[C@@H](Oc1ccccc1C)c1ccccc1 [Tomoxetine hydrochloride] | 107
CCCCC1C(=O)N(c2ccccc2)N(c2ccccc2)C1=O [Phenylbutazone] | 92

Structure (SMILES) | planktonic growth [%]
CC(=O)/N=c1/sc(S(N)(=O)=O)nn1C [Methazolamide] | 104
N=C(N)N1CCc2ccccc2C1 [Debrisoquin sulfate] | 92
CCCc1nc2c(C)cc(-c3nc4ccccc4n3C)cc2n1Cc1ccc(-c2ccccc2C(=O)O)cc1 [Telmisartan] | 96
COCCCOc1cc(C[C@@H](C[C@H](N)[C@@H](O)C[C@H](C(=O)NCC(C)(C)C(N)=O)C(C)C)C(C)C)ccc1OC [Aliskiren hemifumarate] | 88
CCCCOC(=O)c1ccc(O)cc1 [Butylparaben] | 93
CC(=O)Nc1ccc(OCC(O)CNC(C)C)cc1 (stereo not given) [Practolol] | 93
CN1[C@@H]2CC[C@H]1C[C@@H](OC(c1ccccc1)c1ccccc1)C2 [Benztropine mesylate] | 97
CCCC(=O)Nc1ccc(OCC(O)CNC(C)C)c(C(C)=O)c1 (stereo not given) [Acebutolol hydrochloride] | 95
O=C(Nc1ccccc1)OCC(CN1CCCCC1)OC(=O)Nc1ccccc1 (stereo not given) [Diperodon hydrochloride] | 92
Cc1c(F)c(N2CCNC(C)C2)cc2c1c(=O)c(C(=O)O)cn2C1CC1 (stereo not given) [Grepafloxacin] | 6
N=C(N=C(N)N)N1CCOCC1 [Moroxidine hydrochloride] | 108
CC(=O)OCC(=O)[C@@]12OC3(CCCC3)O[C@@H]1C[C@H]1[C@@H]3CCC4=CC(=O)C=C[C@]4(C)[C@@]3(F)[C@@H](O)C[C@@]12C [Amcinonide] | 100
COC(=O)CCc1ccc(OCC(O)CNC(C)C)cc1 (stereo not given) [Esmolol hydrochloride] | 111
CN1C(C(=O)Nc2ccccn2)=C(O)c2ccccc2S1(=O)=O [Piroxicam] | 94
COCCOC(=O)C1=C(C)NC(C)=C(C(=O)OC(C)C)C1c1cccc([N+](=O)[O-])c1 (stereo not given) [Nimodipine] | 96
NC(=O)OCC(O)COc1ccc(Cl)cc1 (stereo not given) [Chlorphensin carbamate] | 96
C[C@]12CCC(=O)C=C1C=C[C@@H]1[C@@H]2CC[C@@]2(C)[C@H]1CC[C@@]21CCC(=O)O1 [Canrenone] | 110
O=C(CCCN1CCC(O)(c2ccc(Cl)cc2)CC1)c1ccc(F)cc1 [Haloperidol] | 93
Cc1ccc(C)c(OCCCC(C)(C)C(=O)O)c1 [Gemfibrozil] | 91
O=C(O)C[C@H](O)C[C@H](O)/C=C/c1c(C2CC2)nc2ccccc2c1-c1ccc(F)cc1 [Pitavastatin calcium] | 107
CNCCC=C1c2ccccc2C=Cc2ccccc21 [Norcyclobenzaprine] | 97
CC(C[N+](C)(C)C)OC(N)=O (stereo not given) [Bethanechol chloride] | 95
Cc1cn([C@H]2C[C@H](N=[N+]=[N-])[C@@H](CO)O2)c(=O)[nH]c1=O [Zidovudine, AZT] | 22
COc1ccc([C@@H]2Sc3ccccc3N(CCN(C)C)C(=O)[C@@H]2OC(C)=O)cc1 [Diltiazem hydrochloride] | 91
COc1ccc2c(c1)C(=O)N(CCc1ccc(S(=O)(=O)NC(=O)NC3CCCCC3)cc1)C(=O)C2(C)C [Gliquidone] | 101
